{"source": "PubChem BioAssay AID686978", "about": "(National Center for Advancing Translational Sciences (NCATS), 2013)", "note": "Hit rate of the full screen: of about 420,000 compounds, about 64,000 (15%) were called active. This list was built around the results that the source calls inconclusive (neither active nor inactive); the mix of calls is not that of the screen. Calls come from the whole dose curve; as a rule, active = well fitted inhibition curve with a large enough effect; inconclusive = small, poorly fitted or top-dose-only effect; inactive = flat fitted curve, though single readings scatter. Potencies of inconclusive entries are left out as doubtful fits. Potency is the fitted concentration of half-maximal effect; tags give direction and shape of the fitted curve."}
{"experiment": "qHTS for Inhibitors of human tyrosyl-DNA phosphodiesterase 1 (TDP1): qHTS in cells in absence of CPT; note: nearly all actives have a fitted effect of over 55% in size", "conditions": "DT40 Tdp1-/- hTDP1 cells, no CPT, ATP luminescence, 48 h; series mostly up to 46.2 µM", "method_in_brief": "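DT40 Tdp1-/-;hTDP1 cells, no CPT (DMSO vehicle only), 400 cells/well; compounds pin-transferred; ≥48 hr, 37 °C; CellTiter-Glo 30 min RT dark, luminescence read.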"}
{"smiles": "Cc1ccc(CSC2=NCCN2S(=O)(=O)c2ccc(C)cc2)cc1", "Potency": "inconclusive [inhibitor, single point]"}
{"smiles": "CCOC1=C2CN(S(=O)(=O)c3ccc(C)cc3)C(c3cccc(Cl)c3)CC2N(S(=O)(=O)c2ccc(C)cc2)C(c2ccncc2)C1", "note": "(stereo not drawn)", "Potency": "active: 16.4 µM"}
{"smiles": "COc1ccc2cc(Br)ccc2c1CC(=O)NCCCN1CCOCC1", "Potency": "inconclusive [inhibitor, single point]"}
{"smiles": "CCOc1ccc(-n2c(SCc3ccc(C(=O)OC)o3)nc3c([nH]c4ccccc43)c2=O)cc1", "Potency": "inconclusive [inhibitor, partial curve]"}
{"smiles": "O=C(Nc1ccc(-c2cn3ccsc3n2)cc1)C1COc2ccccc2O1", "note": "(stereo not drawn)", "Potency": "inconclusive [inhibitor, single point]"}
{"smiles": "CCCc1cc(=O)[nH]c(Nc2cccc(Cl)c2Cl)n1", "Potency": "inconclusive [inhibitor, single point]"}
{"smiles": "CN(C(=O)CSc1nnc(-c2ccncc2)n1C)C1CCS(=O)(=O)C1", "note": "(stereo not drawn)", "Potency": "inactive"}
{"smiles": "COc1ccc(C(=O)/C=C/c2cn(CC(O)CN3CCN(C)CC3)c3ccccc23)cc1OC", "note": "(stereo not drawn)", "Potency": "inconclusive [inhibitor, single point]"}
{"smiles": "Cc1cc(C)c(C#N)c(SCC(=O)Nc2nonc2N)n1", "Potency": "inconclusive [inhibitor, single point]"}
{"smiles": "Cc1ccc(N/C=C(\\C#N)c2ccc(OCCCF)cc2)cc1", "Potency": "inconclusive [inhibitor, partial curve]"}
{"smiles": "Cc1ccc(NCC(=O)N/N=C/c2ccc(C(=O)O)cc2)cc1", "Potency": "inactive"}
{"smiles": "O=C(Nc1cccc(C(F)(F)F)c1)C1CCCCC1", "Potency": "inconclusive [inhibitor, partial curve]"}
{"smiles": "CCOc1ccc(-c2cc(OC(=O)c3ccc(F)cc3)c3c(C)oc(C)c3c(=O)c2)cc1", "Potency": "active: 16.4 µM"}
{"smiles": "CC(O)(c1ccccc1)c1nc(-c2cccc(C(F)(F)F)c2)cs1", "note": "(stereo not drawn)", "Potency": "inconclusive [inhibitor, single point]"}
{"smiles": "CN(C)c1ccc(NC(=O)COC(=O)c2ccc3c(c2)OCO3)cc1", "Potency": "inconclusive [inhibitor, single point]"}
{"smiles": "COc1cccc(/C=N/NC(=O)c2cc3c(OC)c(OC)ccc3[nH]2)c1OC", "Potency": "active: 2.59 µM"}
{"smiles": "COc1ccc(-n2nc(C(=O)NCC(=O)NCCC3=CCCCC3)c3ccccc3c2=O)cc1OC", "Potency": "active: 18.4 µM"}
{"smiles": "CCOC(=O)CCCc1ccc(/C(C)=N/NC(=S)NC)cc1", "Potency": "inconclusive [inhibitor, single point]"}
{"smiles": "Cc1cc(C)cc(C(=O)NC(=S)Nc2ccc(-c3cc4ccccc4oc3=O)cc2)c1", "Potency": "inconclusive [inhibitor, partial curve, poor fit]"}
{"smiles": "CCc1cccc(NC(=O)c2cccc3c2C(=O)N(CC2CCCO2)C3)c1", "note": "(stereo not drawn)", "Potency": "inconclusive [inhibitor, single point]"}
{"smiles": "CCC(CC)c1nnc(NC(=O)CCc2ccc(OC)cc2)s1", "Potency": "inconclusive [inhibitor, single point]"}
{"smiles": "CSc1nc2ccccc2c(=O)n1C1CCCCC1", "Potency": "inconclusive [inhibitor, partial curve]"}
{"smiles": "CCCc1nc2ccc(NC(C)=O)cc2c(=O)n1Cc1cccc(Cl)c1", "Potency": "inconclusive [inhibitor, partial curve, poor fit]"}
{"smiles": "Cc1ccc(C)c(OCCC(=O)N2CCN(S(=O)(=O)c3cc(C)ccc3C)CC2)c1", "Potency": "inconclusive [inhibitor, single point]"}
{"smiles": "CCNC(=O)C1CCCN(Cc2ccc(C)c3ccccc23)CC1", "note": "(stereo not drawn)", "Potency": "inconclusive [inhibitor, partial curve]"}
{"smiles": "COc1ccc(NC(=O)c2cc3c(s2)-c2c(C)cccc2OC3)c(OC)c1", "Potency": "active: 23.1 µM"}
{"smiles": "O=c1[nH]cc(N(CCO)CCO)c(=O)[nH]1", "Potency": "inactive"}
{"smiles": "CC1(C)CC(=O)C=C(c2cccc(OC(=O)c3ccc(-c4ccccc4)cc3)c2)C1=O", "Potency": "inconclusive [inhibitor, single point]"}
{"smiles": "CC(C)Oc1ccccc1OC1(C)CCN(Cc2ccc(OC(F)(F)F)cc2)C1", "note": "(stereo not drawn)", "Potency": "inconclusive [inhibitor, single point]"}
{"smiles": "Cc1sc2c(=O)n3c(nc2c1C(=O)NCCCN1CCOCC1)CCCCC3", "Potency": "inconclusive [inhibitor, single point]"}
{"smiles": "COc1ccc(C(=O)NC(=S)Nc2ccc3oc(=O)ccc3c2)cc1", "Potency": "inactive"}
{"smiles": "CC[C@H](C)[C@@H](N)C(=O)NC[C@H]1O[C@@H](n2cnc3c(=O)[nH]c(N)nc32)[C@H](O)[C@@H]1O", "Potency": "inactive"}
{"smiles": "COc1ccccc1NS(=O)(=O)c1cccc(NC(=O)c2sc3ccccc3c2Cl)c1", "Potency": "inconclusive [inhibitor, single point]"}
{"smiles": "COc1ccc(S(=O)(=O)Nc2nnc(C(C)(C)C)s2)cc1", "Potency": "inconclusive [inhibitor, single point]"}
{"smiles": "NC(=O)c1nn(CC(=O)Nc2cccc(S(=O)(=O)N3CCCC3)c2)c(=O)c2ccccc12", "Potency": "inactive"}
{"smiles": "O=C(Nc1ccc(Br)cc1F)c1cc(S(=O)(=O)NCc2ccc(F)cc2)ccc1F", "Potency": "inconclusive [inhibitor, single point]"}
{"smiles": "O=C(C(O)c1ccccc1)N1CCN(S(=O)(=O)c2ccc(C(F)(F)F)cc2)CC1", "note": "(stereo not drawn)", "Potency": "inactive"}
{"smiles": "C=C(C)Cn1c(=O)c2c(nc3n2CCN3c2ccc(CC)cc2)n(C)c1=O", "Potency": "inconclusive [inhibitor, partial curve]"}
{"smiles": "Cc1ccc(CN(C)C(=O)C2CCC(=O)N(CCc3ccccc3)C2)o1", "note": "(stereo not drawn)", "Potency": "inconclusive [inhibitor, single point]"}
{"smiles": "COCCC(=O)N1CCCC(C(=O)c2ccc(Oc3ccccc3)cc2)C1", "note": "(stereo not drawn)", "Potency": "active: 20.6 µM"}
{"smiles": "COc1cccc(Nc2ccccc2C(=O)O)c1", "Potency": "inactive"}
{"smiles": "COc1ccc(C2NC(=O)c3sc4nc(C)c(C(C)=O)c(-c5ccc(Cl)cc5)c4c3N2)cc1", "note": "(stereo not drawn)", "Potency": "inconclusive [inhibitor, single point]"}
{"smiles": "CC(C(=O)Nc1ccccc1C(=O)N1CCOCC1)N(c1ccccc1)S(C)(=O)=O", "note": "(stereo not drawn)", "Potency": "inconclusive [inhibitor, single point]"}
